The numbers were not newly measured in patent US20220233468A1 (priority 2021, published 2022), which cites them from elsewhere.

Where a name gives a salt, the structure may show the parent alone. Read-outs that look alike come from different tables or passages of the source.

For one series, the system named is SARS-CoV-2. The note with it: in vitro, from literature (Hoffmann et al.; Ou et al.; Yamamoto et al.; Bestle et al.), cited from earlier work.
Another series concerns SARS-CoV. To be noted: in vitro, from literature (Hoffmann et al.; Ou et al.); cited from earlier work.

As to `N=C(N)c1ccc2cc(OC(=O)c3ccc(N=C(N)N)cc3)ccc2c1` [Nafamostat], in the series on SARS-CoV-2, the “block of SARS-CoV-2 cell entry” value is “block the SARS-CoV-2 entry and reduce the infection rate”.

Turning to Aprotinin, the “block of SARS-CoV-2 cell entry” value in the series with SARS-CoV-2 is “block the SARS-CoV-2 entry and reduce the infection rate”.

Consider `CN(C)C(=O)COC(=O)Cc1ccc(OC(=O)c2ccc(NC(=N)N)cc2)cc1` [camostat mesylate], for which the “block of SARS-CoV cell entry” value with SARS-CoV is listed as “partially blocks”. Also, the “block of SARS-CoV-2 cell entry” value with SARS-CoV-2 was “partially blocks”; in the series with SARS-CoV-2 (listed as Camostat), “block the SARS-CoV-2 entry and reduce the infection rate”.
